Laboratory results taken from ChEMBL document CHEMBL4888484, “Replenishing the malaria drug discovery pipeline: Screening and hit evaluation of the MMV Hit Generation Library 1 (HGL1) against asexual blood stage Plasmodium falciparum ,using a nano luciferase reporter read-out” (2022).
Among all 150,000 compounds or so, about 540 (0.36%) showed an effect of 50% or more. The list shows a part of the results.

tested on: Plasmodium falciparum; assay: Primary screen in NF54 nanoGlo assay, in single point, at 2uM, 72h; a lower Z score goes with more inhibition; assay type: functional, Erythrocyte; conditions: timepoint 72 hour

Compound	% Inhibition [%]	Z score
O=C(c1ccc(-c2ccccc2)[nH]c1=O)N1Cc2ccccc2[C@@H](O)C1	-17	2
C[C@@H](Cn1cncn1)NC(=O)NC1CC(c2cccc(Cl)c2)C1 (stereo partly specified)	-8	1.42
CC(=O)N1CCN(C(=O)CN(CC(F)(F)F)C2CCC2)CC1	-3	0.48
Cc1nc2nnnn2c(C)c1Cc1ccc(Cl)cc1	-6	0.65
CCOC(=O)N1CCN(C(=O)c2cc(-c3cccc(OC)c3)n3nc(-c4ccccc4)cc3n2)CC1	1	-0.08
CCn1ccc(C(=O)NCc2cccnc2)cc1=O	8	-0.81
Cc1cc(N2CCC([C@H](C)N3CCN(C)CC3)CC2)n2nc(C)cc2n1	13	-1.69
O=C(CCc1ccc2c(c1)OCCO2)N1CCC(c2nc3ccccc3o2)CC1	-14	2.13
Cc1ccc(CNC(=O)c2ccc(C)c(-n3nnc4cccnc43)c2)cc1	-5	0.94
COc1ccc(C2N(c3ccccc3)OC3C(=O)N(c4ccccc4)C(=O)C32c2ccccc2)cc1 (stereo unspecified)	-14	1.52
Cn1c(=O)sc2cc(NC(=O)c3ccccc3Br)ccc21	-8	1.53
COc1ccc(/C=C/CN2C[C@@H](C(=O)O)C[C@@H](C(=O)NC3CC3)C2)cc1	-5	0.95
CCN(C(=O)c1ccccc1O)[C@@H](C(=O)Nc1c(C)cccc1C)c1ccc(Cl)cc1Cl	34	-3.83
Cc1ccsc1CN(Cc1ccccc1)C(=O)CN(CC(C)C)S(=O)(=O)c1cccc2cccnc12	-11	1.2
CCOCCOCC(=O)Nc1ccc(OC(F)(F)F)cc1	-14	1.48
CN1CCN(C)[C@@H](CNCc2ccc(Oc3ccccc3)o2)C1	-5	0.73
CC(C)n1nccc1S(=O)(=O)N(C)CCN1CCCC1	5	-0.65
CCCS(=O)(=O)NC(=O)CCc1ccc(Br)cc1	-8	0.71
COc1cccc(CNC(=O)CC(C)(C)CC2=Nc3ccccc3S(=O)(=O)N2)c1	12	-1.4
CNC(=O)NC(=O)C(C)N1CCCC1CC(O)c1ccc(F)cc1 (stereo unspecified)	-14	2.65
COCC(=O)Nc1cc(C(=O)N2CCN(C(C)=O)CC2)c2c(c1)ncn2Cc1ccc(F)cc1	21	-2.66
N#Cc1nc(COc2cccc(Cl)c2)oc1NC[C@H]1CCCO1	35	-0.86
Cc1cccc(OCC(=O)N2CCC[C@@H]2C(=O)NCCc2csc(-c3ccccc3)n2)c1	0	0.06
Cc1oc(C(C)C)cc1C(=O)[C@H](C#N)C(=O)NCc1ccccc1	10	-1.61
O=C(O)[C@H]1CCCCN1C(=O)CCCc1c[nH]c2ccccc12	-6	0.86
Cn1ncc2c(N3CCCN(C4CC4)CC3)ncnc21	14	-1.78
CC[C@H](C)[C@H](NC(=O)c1ccc(C(F)F)cc1F)C(=O)O	-13	1.3

Compound	% Inhibition [%]	Z score
Cc1ccc(S(=O)(=O)Nc2nc(C)c(NC(=O)Nc3ccccc3Cl)s2)cc1	-10	1.32
CCC(NC(=O)c1cccc(OC)c1)C1c2cc(OC)c(OC)cc2CCN1Cc1ccccc1 (stereo unspecified)	2	-0.39
O=C(O)C1CCC(Cc2ccc(O)cc2)N1 (stereo unspecified)	-8	1.64
O=C(COc1ccc(Cl)cc1Cl)N1CC=C[C@@H]1CO	-6	1.23
O=C(c1ccc2c(c1)OCO2)N1CCC[C@](CCc2ccccc2)(C(=O)O)C1	-4	0.79
COc1cccc(NC(=O)c2c(C)sc3ncnc(N4CCCCCC4)c23)c1	1	-0.1
CCOC(=O)c1nccn1CC(=O)Nc1c(CC)c(CC)nn1C	-7	0.89
Cc1cccc2c1N(C(=O)c1ccn3ccnc3c1)CC2	-6	0.9
O=C(NCc1ccccc1)c1cc[n+](Cc2cccc(F)c2)cc1	-7	0.72
CC(C)(C)OC(=O)N1C[C@@H]2CCCC[C@@]2(C(=O)NCCCOCC2CCOC2)C1 (stereo partly specified)	-1	0.15
CC1(C)C[C@@H]1NC(=O)c1cc(Cl)cc(F)c1N	3	-0.44
COc1cc(N(C)CC[C@H]2CCCCO2)ncn1	-4	0.58
COCCN(CCC(=O)NCc1ccc2c(c1)OCO2)C(=O)c1cc(-c2cc(C)ccc2C)on1	-12	1.16
O=C(CCN1CCO[C@H](c2ccc(Cl)cc2)C1)Nc1ccc(N2CCOCC2)cc1	-13	1.75
CCC(CC)Nc1ccn(CC(F)F)n1	-11	2.08
CC(C)CCN1CC(=O)N2C(c3ccccc3)c3[nH]c4ccccc4c3C[C@H]2C1=O (stereo partly specified)	-11	1.36
CC(C)[C@H](NC(=O)CC1=CCCCC1)C(=O)O	-12	1.13
CCn1ccnc(N2CC[C@@](O)(C(F)(F)F)C2)c1=O	-12	1.07
Cn1cccc1[C@H](CNS(=O)(=O)c1ccc(F)cc1)N1CCCCCC1	0	-0.07
Cc1cc(C)c2c(c1)N(C(=O)Cc1cnccc1C)CCO2	-7	0.88
COc1cccc(-c2nc3ccc(C(=O)N[C@@H](C)c4n[nH]c(C)n4)cc3o2)c1	4	-0.7
CC(C)c1ncc(NC(=O)COCC2CC2)cn1	1	-0.1
Cn1nc(-c2ccc(F)cc2)cc1C(=O)NCCc1nc2c(c(C(F)(F)F)n1)COCC2	-24	4.51
Cc1ccc(NC(=O)Cn2cnc3c(nnn3C)c2=O)cc1C	-11	1.65
CN(Cc1ccccc1NCc1cc2n(n1)CCCC2)C(=O)c1cccs1	-7	0.7
CNC(=O)[C@H]1CCN(C(=O)c2cc(C)ccc2-n2cnnc2)C1	5	-0.9
